Reference: paper PMC3410417 (The Journal of Cell Biology, 2012)

Biological target: NMDA receptor (YFP-NR1A + NR2B) (UniProt P35439; Q01097)
Assay: FRET or BRET

- BRET ratio in spine over shaft in the presence of TAT-Homer1a: 1.77 ± 0.12
B1: Rluc8-mGlu5a (receptor)
chain: not shown
